Structures are written as SMILES. Values joined by “and” are separate entries in the source; they are usually repeats but may differ in a detail not shown here. Identical values can stand only once. In all, about 48,000 compounds went through this assay and about 1,200 (2.5%) were called active. Another 2% or so got no clear call; they are omitted.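 How the source made its calls: active means activation of at least 60% and not above a set upper limit (about 1 call in 100 departs from these limits); inconclusive means activation of 40% to 60%, or above that upper limit; inactive means activation under 40%.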 This is one part of the list.

This experiment addresses Probable G-protein coupled receptor 32 (Homo sapiens) (UniProt O75388). As to the kind of experiment: qHTS for Agonists of Human Resolvin D1 Receptor DRV1. Further: 0% is about no effect. Conditions: CHO-K1 GPR32 beta-arrestin PathHunter luminescence, 90 min; at 76.9 µM; active compounds read high; zero percent set by DMSO-only wells. In short, it runs like this: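 Luminescent readout of beta-Gal complementation quantifies ligand-induced beta-arrestin association with GPR32 in CHO-K1 cells; 90 min compound incubation at 37 °C, detection 1 h at room temperature.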
Sequence of UniProt O75388 (O75388 whole entry, looked up): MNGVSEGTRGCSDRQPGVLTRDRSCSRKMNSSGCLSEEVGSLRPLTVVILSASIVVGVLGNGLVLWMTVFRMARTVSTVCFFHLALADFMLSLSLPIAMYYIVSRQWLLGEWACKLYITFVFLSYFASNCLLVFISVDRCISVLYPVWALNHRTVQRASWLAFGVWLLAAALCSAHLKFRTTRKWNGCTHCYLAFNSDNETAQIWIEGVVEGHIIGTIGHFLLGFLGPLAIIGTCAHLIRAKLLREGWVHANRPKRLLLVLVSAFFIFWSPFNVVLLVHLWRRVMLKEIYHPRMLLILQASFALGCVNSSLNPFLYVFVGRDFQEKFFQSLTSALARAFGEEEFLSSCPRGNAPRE
In general terms: Quantitative high-throughput screening tests each substance at several concentrations.
Turning to `Nc1ccc(S(=O)(=O)Nc2ccnn2-c2ccccc2)cc1`, the activation was inactive: 5.49% and inactive: -4.48%.
With `CCOCCCn1c(=N)c(C(=O)NCC2CCCO2)cc2c(=O)n3cccc(C)c3nc21` (stereo not given), the activation was inactive: 18.1%.
As to `O=C(c1cccs1)N1CCCc2cc(NS(=O)(=O)c3ccc(F)cc3F)ccc21`, the activation is inactive: -15.2%.
As for `CCN(C)C(=O)Oc1cccc([C@H](C)N(C)C)c1`, the figure is inactive: 17.8%; as for `CCCN(CCC)CCCNC(=O)Cn1cnc2sc(C)c(S(=O)(=O)N3CCC(C)CC3)c2c1=O`, inactive: 3.17%.
With `O=C(Nc1cccc(F)c1)c1ccc(-c2ccccc2)s1`, the activation was active: 68.3%.
For `Cc1cccc(NS(=O)(=O)c2ccc3c(c2)CCN3C(=O)C2CCC2)c1`, the activation was inactive: -0.107%.
In the case of `COC(=O)C1CCN(S(=O)(=O)c2cc3c4c(c2)CC(=O)N4CCC3)CC1`, the activation is inactive: -21.8%.
Regarding `COc1ccc2c(c1)NC(c1cccnc1)=NC(c1ccc(F)cc1)=N2`, the activation is inactive: 7.51%.
`Cc1ccc(S(=O)(=O)c2cn(Cc3ccccc3Cl)c3ccc(F)cc3c2=O)cc1`: the activation was inactive: -8.32%.
In the case of `COc1ccc(Br)cc1CNC(=O)c1ccc2c(c1)N(Cc1ccc(C)cc1)CCS2`, the activation is inactive: -18.3%.
As to `Cc1ccc(CN2C(=O)c3ccccc3Sc3ccc(C(=O)OCc4ccco4)cc32)cc1`, the activation was inactive: -20.2%.
As for `CCc1cccc(Nc2ncnc3onc(-c4ccc(F)cc4)c23)c1`, the activation was inactive: -2.78%.
As for `COC(=O)c1c(C)nn(-c2ccc(F)cc2)c1-n1cccc1`, the figure is inactive: -24.2%; as for `Cc1ccc(NC(=O)CSc2nc(-c3ccccc3Cl)nc3cc(=O)[nH]n23)c(C)c1`, inactive: 0.591%; as for `Cc1ccc(C(c2sc3nc(-c4ccco4)nn3c2O)N2CCC3(CC2)OCCO3)cc1` (stereo not given), inactive: 8.02%.
`COc1ccc(OC)c(C2NC(=O)NC(C)=C2C(=O)Nc2ccc(F)cc2)c1` (stereo not given): the activation is inactive: -6.24%.
For the compound `COc1cccc(N2CCN(S(=O)(=O)c3ccc(-c4ccno4)cc3OC)CC2)c1`, the activation was inactive: -0.323%.
As to `O=C(CSc1cn(CC(=O)N2CCCCC2)c2ccccc12)Nc1ccc(C(F)(F)F)cc1`, the activation is inactive: -2.78%.
On to `O=C(CSc1nc(-c2ccc(F)cc2)cc(C(F)(F)F)n1)NCCc1ccccc1`, for which the activation is inactive: 3.63%.
`O=C(NCC(O)CO)c1c(I)c(C(=O)NCC(O)CO)c(I)c(N(CCO)C(=O)CO)c1I` (stereo not given): the activation is inactive: 14%.
As for `COc1ccc(NC(=O)c2ccco2)cc1NC(=O)COc1ccc(Cl)cc1C`, the figure is inactive: -4.99%; as for `COc1cccc(N2CCN(C(=O)c3ccc(NC(=O)c4nsc5ccccc45)cc3)CC2)c1`, inactive: -15.9%.
For the compound `CCN(CC)CCNC(=O)c1sc2ncccc2c1-n1cccc1`, the activation was inactive: -11.3%.
For the compound `Cc1ccc(C(=O)NCc2ccc(F)cc2)cc1NC(=O)c1nsc2ccccc12`, the activation is inactive: -22.2%.
In the case of `Cc1cc(C)cc(-n2c(SCC(=O)Nc3ccc4c(c3)OCCO4)nc3c([nH]c4ccccc43)c2=O)c1`, the activation was inactive: -12.9%.
With `Cn1cc(S(=O)(=O)c2ccccc2)c(=O)c2cc(F)c(N3CCCCCC3)cc21`, the activation is inactive: 1.29%.
Turning to `CC1=C(c2ccc(C)c(C)c2)S(=O)(=O)N=C1N1CCC(C(=O)NC(C)Cc2ccco2)CC1` (stereo not given), the activation is inactive: -4.83%.
As for `Cn1c(=O)n(C)c2cc(N3CCCCC3)c(NC(=O)c3ccc(C(C)(C)C)cc3)cc21`, the figure is inactive: 5.76%; as for `COc1ccc(CNC(=O)CCc2nc(-c3ccc(C)cc3)no2)c(OC)c1`, inactive: -18.7%; as for `O=C(Nc1ccc2nc(SCC(=O)N3CCc4ccccc43)sc2c1)c1ccccc1F`, inactive: 4.79%.
Consider `COc1cc(C(=O)Nc2nonc2-c2ccc(C)c(C)c2)cc(OC)c1OC`, for which the activation was inactive: 6.34%.
In the case of `COc1ccc(C)cc1-n1cnc2cc(C(=O)NC3CCCC3)ccc21`, the activation is inactive: -4.89%.
`Cc1ccc(NC(=O)c2ccc(NC(=O)N3CCSc4ncccc43)cc2)c(C)c1`: the activation is inactive: 4.39%.
As for `CCC(=O)c1c(O)cc(O)cc1O`, the figure is inactive: -4.7%.
As for `CCOc1ccccc1NC(=O)Cn1c2ncccc2c(=O)n1-c1ccc(C)c(C)c1`, the figure is inactive: -12.5%.
Turning to `CCc1ccc2nc(N3CCN(C(=O)C4CC4)CC3)sc2c1`, the activation was inactive: -2.87%.
Regarding `Cn1nnnc1SCCCNCc1cccc(OCc2ccccc2Cl)c1`, the activation was inactive: -2.18%.
Take `COc1ccc(C)cc1NC(=O)CSc1nc(=O)n(Cc2ccccn2)c2c1CCC2`: the activation is inactive: -5.22%.
As to `CCN1C(=O)C(Cc2nc3ccccc3c(=O)n2-c2ccccc2)c2cc(Br)ccc21` (stereo not given), the activation is inactive: -0.603%.
As for `Cc1oc(-c2ccc(C(=O)Nc3ccccc3F)cc2)nc1COc1ccccc1`, the figure is inactive: -2.69%; as for `CCOc1ccc(NC(=O)CN2C(=O)C3(SCC(=O)N3c3ccc(F)cc3)c3ccccc32)cc1` (stereo not given), inactive: -9.04%; as for `Cc1cccc(C)c1NC(=O)CN1C(=O)c2cccc3cccc1c23`, inactive: -7.39%.
For `COc1ccc(C2C(=O)N(C3CCC(C)CC3)CC(=O)N2CCC2=CCCCC2)cc1OC` (stereo not given), the activation is inactive: -17.1%.
As for `Cc1oc2c(c(C)cc3oc(=O)c(CC(=O)NCc4ccc(F)cc4)c(C)c32)c1C`, the activation is inactive: -12.6%.
In the case of `CC(=O)N1CCCc2cc(S(=O)(=O)Nc3ccc(C)c(F)c3)ccc21`, the activation is inactive: -6.36%.
Regarding `COc1ccc(CNc2oc(-c3ccc(COc4ccc(OC)cc4)o3)nc2C#N)cc1`, the activation is inactive: -25.7%.
As for `CCOC(=O)c1ccc(NS(=O)(=O)c2ccc3[nH]c4c(c3c2)CCCCC4)cc1`, the activation is inactive: 10.3%.
As for `Cc1cccc(NC(=O)Cn2c(=O)oc3cc(S(=O)(=O)NC4CCCC4)ccc32)c1`, the activation is inactive: 15.9%.
As for `CCc1nn(CC(=O)N2CCN(c3cccc(C(F)(F)F)c3)CC2)c(=O)c2cccn12`, the figure is inactive: -8.59%; as for `CC(=O)N1CCc2cc(S(=O)(=O)NC(Cc3ccccc3)C(=O)Nc3ccc(Cl)cc3)ccc21` (stereo not given), active: 95.8%.
With `Cc1cc(C)c(OCC(=O)N(Cc2cccc(F)c2)Cc2ccco2)c(C)c1`, the activation is inactive: -23.9%.
On to `Cc1ccc(C)c(CN2C(=O)c3ccccc3S(=O)(=O)c3ccc(C(=O)NCc4ccccc4)cc32)c1`, for which the activation was inactive: -22.1%.
`Cc1cccc(OCCSc2nc3ccc(NC(=O)COc4ccccc4)cc3s2)c1`: the activation is inactive: -3.57%.
As for `Cc1cccc(OCCCn2c(CCNC(=O)C(C)(C)C)nc3ccccc32)c1`, the figure is inactive: 14.8%; as for `CCCN1CCc2nc(N3CCN(c4ncccn4)CC3)ncc2C1`, inactive: -20.9%; as for `CCOc1ccc(C(=O)Nc2ccc3oc(-c4cccnc4)nc3c2)cc1`, inactive: 15.7%.
In the case of `COc1ccc(S(=O)(=O)Nc2cc3c(cc2NCc2ccccc2)n(C)c(=O)n3C)cc1`, the activation is inactive: 31.7%.
Regarding `Cc1ccc2c(=O)c(C(=O)c3ccc(F)cc3)cn(CC(=O)NCCc3ccccc3)c2n1`, the activation was inactive: -6.99%.
As for `CCOCCCNC(=O)C(=O)Nc1c2c(nn1-c1ccc(OC)cc1)CSC2`, the figure is inactive: -39.4%; as for `COc1ccc(CN(Cc2ccco2)c2cnc(S(C)(=O)=O)nc2C(=O)Nc2ccc(C)cc2C)cc1`, inactive: -15%; as for `Cc1c(C(=O)NCc2ccccc2Cl)sc2nc[nH]c(=O)c12`, inactive: 16.8%.
For `CN1CCN(CCCNC(=O)c2ccc3nc(Cc4ccccc4)oc3c2)CC1`, the activation is inactive: -10.5%.
As for `O=C(CN1CCCN(Cc2ccc(F)cc2)S1(=O)=O)NCc1ccccc1Cl`, the activation is inactive: -14.5%.
With `Cc1csc2nc(COC(=O)CNC(=O)c3ccccc3Cl)cc(=O)n12`, the activation was inactive: -4.18%.
With `O=C(Nc1c(C(=O)N2CCN(c3ccccc3F)CC2)oc2ccccc12)c1ccccc1F`, the activation is inactive: 6.7%.
On to `O=C(CSc1nc2ccncc2[nH]1)Nc1ccccc1C(F)(F)F`, for which the activation is inactive: 8.97%.
In the case of `Cc1ccc(-n2nc3c(=O)n(CCCC(=O)NCc4ccccc4F)nc(C)c3c2C)cc1`, the activation was inactive: -9.06%.
Consider `Cc1nc(-c2ccc(S(=O)(=O)N3CCN(c4ccc(F)cc4)CC3)cc2)co1`, for which the activation is inactive: 6.73%.
Regarding `CNC(=O)c1cnn(-c2nc(N)c3ncn([C@@H]4O[C@H](CO)[C@@H](O)[C@H]4O)c3n2)c1`, the activation was inactive: -2.13%.
For the compound `CCC12CN3CC(CC)(CN(C1)C3c1cc(Br)ccc1OC)C2=O` (stereo not given), the activation was inactive: -8.73%.
On to `OCC1O[C@H](O)C(Cl)C(O)C1O` (stereo not given in full), for which the activation is inactive: 5.97%.
Take `CC(=O)N1CCOc2cc(S(=O)(=O)N(C)Cc3ccccc3)c(Cl)cc21`: the activation was inactive: 0.433%.
On to `CCC(=O)N1CCc2cc(Br)cc(S(=O)(=O)CCC(=O)NCc3ccc(F)cc3)c21`, for which the activation was inactive: -5.52%.
Consider `N#Cc1ccccc1NC(=O)c1cnc(N2CCOCC2)c2ccccc12`, for which the activation is inactive: -6.93%.
Consider `COc1cccc2c1Oc1ncccc1N(C(=O)CCC(=O)NCc1ccc(C)cc1)C2`, for which the activation is inactive: -12%.
As to `Cc1ccc(Cn2c(CNC(=O)c3cccc(C)c3)nc3ccccc32)cc1`, the activation was inactive: 24.7%.
For `COc1ccccc1-c1nnc(C2CCN(C(=O)c3ccc(Cl)cc3)CC2)o1`, the activation is inactive: -8.57%.
For `COc1ccc(NC(=O)Cc2noc3ccc(C)cc23)cc1Cl`, the activation was inactive: 7.58%.
`CCc1cccc(C)c1NC(=O)CCn1nc(C)c2c(C)n(-c3ccccc3)nc2c1=O`: the activation is inactive: -4.71%.
Regarding `CCOc1ccccc1O[C@H](c1ccccc1)[C@H]1CNCCO1`, the activation is inactive: -20.3%.
For `CC1=C(C(=O)Nc2cccc(C(F)(F)F)c2)C(c2ccccc2)n2ncnc2N1` (stereo not given), the activation was inactive: 6.68%.
On to `COc1ccc(NC(=O)Cn2c(=O)n(-c3ccc(C)c(C)c3)c(=O)c3c(C)c(C)sc32)cc1`, for which the activation is inactive: -3.01%.
With `COc1cccc(N2CC(NC(=O)C3CC3)CC2=O)c1` (stereo not given), the activation is inactive: -3.78%.
Take `COc1ccc(N2CCN(c3cc(C)nc4nncn34)CC2)cc1`: the activation was inactive: 10.9%.

The values are drawn from PubChem BioAssay AID1346428 (National Center for Advancing Translational Sciences (NCATS), 2018).
